115 sequences from the BET-seq Pho4 binding data (Le et al. 2018) can be followed below.

This is one part of the list. The energies were worked out here from pooled read counts, against the library average; single values are noisy.

The target in this experiment is T1, Pho4 (S. cerevisiae) (UniProt P07270).
T1 sequence: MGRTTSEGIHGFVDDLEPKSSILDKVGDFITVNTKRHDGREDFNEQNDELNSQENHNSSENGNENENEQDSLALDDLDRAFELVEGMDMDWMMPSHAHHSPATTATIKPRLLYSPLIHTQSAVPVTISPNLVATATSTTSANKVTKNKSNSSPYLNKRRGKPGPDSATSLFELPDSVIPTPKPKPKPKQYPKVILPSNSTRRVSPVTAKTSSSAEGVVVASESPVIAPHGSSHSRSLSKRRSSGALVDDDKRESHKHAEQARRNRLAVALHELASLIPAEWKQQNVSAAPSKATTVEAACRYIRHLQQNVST
The experiment can be described thus: relative binding free energy (BET-seq); higher = weaker binding. The conditions noted are these: reference: library average.
Consider GTTACCACGTGGGTAT, for which the “relative binding free energy” value is -0.15 kcal/mol.
As for TTCGGCACGTGAGTCT, the figure is 0.16 kcal/mol; as for TGTTGCACGTGTCTGC, -0.01 kcal/mol; as for CAGATCACGTGTTGTG, 0.12 kcal/mol.
On to GGTCTCACGTGTTGGC, for which the “relative binding free energy” value worked out at 0.26 kcal/mol.
With GGGCACACGTGTTGGG, the “relative binding free energy” value came to 0.06 kcal/mol.
To CAGAGCACGTGGCGGG belongs -0.2 kcal/mol; to CTTATCACGTGGTATT, 0.07 kcal/mol; to TCAGTCACGTGGCGTA, 0.05 kcal/mol.
In the case of GGGGGCACGTGGTCCG, the “relative binding free energy” value was -0.19 kcal/mol.
For GTGGGCACGTGTTAGG, the “relative binding free energy” value was determined as 0 kcal/mol.
Take TTGTACACGTGGAGTT: the “relative binding free energy” value turned out to be 0.07 kcal/mol.
As for AGCAACACGTGGGGTG, the figure is -0.18 kcal/mol; as for AAGATCACGTGCGGGT, 0.04 kcal/mol; as for TGCGTCACGTGGTAGC, 0.1 kcal/mol.
With TTATTCACGTGGGTAA, the “relative binding free energy” value came out at 0.2 kcal/mol.
Consider GAGGTCACGTGAAGGC, for which the “relative binding free energy” value came out at 0.41 kcal/mol.
In the case of TTAGTCACGTGAGTTT, the “relative binding free energy” value is 0.18 kcal/mol.
Turning to GTGGTCACGTGAAGGA, the “relative binding free energy” value is 0.33 kcal/mol.
As for AATGGCACGTGAGTCT, the “relative binding free energy” value turned out to be 0.14 kcal/mol.
For CTTTTCACGTGGTACT, the “relative binding free energy” value amounted to 0.29 kcal/mol.
Regarding TAATTCACGTGATATT, the “relative binding free energy” value came to 0.38 kcal/mol.
GTGATCACGTGATTAA: the “relative binding free energy” value was found to be 0.4 kcal/mol.
In the case of TTGGGCACGTGGTTGC, the “relative binding free energy” value was -0.23 kcal/mol.
To GAGATCACGTGGGTTT belongs 0.07 kcal/mol.
For the sequence GTTTTCACGTGGGCGA, the “relative binding free energy” value is 0.14 kcal/mol.
Regarding TTGATCACGTGTAAGG, the “relative binding free energy” value was found to be 0.16 kcal/mol.
For the sequence ATGTTCACGTGTAGTG, the “relative binding free energy” value was 0.15 kcal/mol.
For ATGATCACGTGAATGG, the “relative binding free energy” value was determined as 0.32 kcal/mol.
For TCGTGCACGTGCATTG, the “relative binding free energy” value was -0.03 kcal/mol.
CACGGCACGTGGGGAG: the “relative binding free energy” value was -0.13 kcal/mol.
TGTGGCACGTGCGTGC: the “relative binding free energy” value was -0.19 kcal/mol.
To GTGCTCACGTGATTTG belongs 0.2 kcal/mol.
For ACTTACACGTGGTTTG, the “relative binding free energy” value is 0.04 kcal/mol.
Consider TAGAGCACGTGCGTGT, for which the “relative binding free energy” value was -0.13 kcal/mol.
In the case of ATACTCACGTGGGAGG, the “relative binding free energy” value was determined as 0.16 kcal/mol.
To GTTTTCACGTGTTGAC belongs 0.32 kcal/mol; to TACTGCACGTGGTAGG, -0.19 kcal/mol; to AGTGCCACGTGAGGTG, 0.17 kcal/mol.
As to GCATGCACGTGTGGTT, the “relative binding free energy” value was -0.07 kcal/mol.
As to GGTTTCACGTGGTCTC, the “relative binding free energy” value worked out at 0.24 kcal/mol.
Turning to AAATTCACGTGGGTAA, the “relative binding free energy” value is 0.2 kcal/mol.
Regarding TCTTTCACGTGGTCAG, the “relative binding free energy” value was 0.23 kcal/mol.
Turning to GGGTTCACGTGTTAGG, the “relative binding free energy” value turned out to be 0.41 kcal/mol.
Consider GGTGCCACGTGAGTTG, for which the “relative binding free energy” value worked out at 0.26 kcal/mol.
As for GGTTGCACGTGCAAAG, the figure is 0.04 kcal/mol; as for TTGAGCACGTGGTTTT, -0.1 kcal/mol; as for GTAGGCACGTGGGAAT, -0.22 kcal/mol.
With GTTCACACGTGGTAGT, the “relative binding free energy” value worked out at 0.1 kcal/mol.
On to GTAGGCACGTGGGAGA, for which the “relative binding free energy” value is -0.1 kcal/mol.
With GTGTTCACGTGTGTCA, the “relative binding free energy” value amounted to 0.17 kcal/mol.
To CTTTTCACGTGCGGGG belongs 0.35 kcal/mol; to GAGGACACGTGGGACG, 0.03 kcal/mol.
Consider CTTGTCACGTGGTCAT, for which the “relative binding free energy” value was -0.05 kcal/mol.
Take AAGGGCACGTGTCGGT: the “relative binding free energy” value is -0.06 kcal/mol.
Consider TCAGTCACGTGATGGA, for which the “relative binding free energy” value came to 0.3 kcal/mol.
As for TTGGACACGTGATTAG, the “relative binding free energy” value is 0.18 kcal/mol.
Regarding GGTCGCACGTGGTGTT, the “relative binding free energy” value is -0.11 kcal/mol.
For the sequence TTGGACACGTGAAAGT, the “relative binding free energy” value came to 0.28 kcal/mol.
Take TGTCACACGTGATTTG: the “relative binding free energy” value came out at 0.17 kcal/mol.
With ATTCACACGTGTGGGA, the “relative binding free energy” value is 0.14 kcal/mol.
Consider AGCTTCACGTGTATGG, for which the “relative binding free energy” value came out at 0.17 kcal/mol.
On to TGCTGCACGTGAGTCG, for which the “relative binding free energy” value was 0.24 kcal/mol.
Turning to CTGTGCACGTGTTTGG, the “relative binding free energy” value is -0.06 kcal/mol.
To GGGTGCACGTGTTGAG belongs 0.06 kcal/mol; to ATTTTCACGTGGATAT, 0.29 kcal/mol.
Turning to TAGTTCACGTGCATAT, the “relative binding free energy” value came out at 0.2 kcal/mol.
Regarding ATGCGCACGTGGGTTG, the “relative binding free energy” value was -0.28 kcal/mol.
To AGTCACACGTGGTTGT belongs -0.04 kcal/mol; to CGGAGCACGTGGAGTG, -0.08 kcal/mol; to GTTGTCACGTGTTGAC, 0.13 kcal/mol.
GTTTACACGTGTGGGG: the “relative binding free energy” value turned out to be 0.29 kcal/mol.
As for TAGTGCACGTGTTGTT, the “relative binding free energy” value was -0.03 kcal/mol.
Take GAGGACACGTGGGTGA: the “relative binding free energy” value was -0.06 kcal/mol.
As for AAAGGCACGTGTGATT, the figure is 0.02 kcal/mol; as for GTATCCACGTGTGATT, 0.19 kcal/mol; as for GGGCACACGTGGGTGC, -0.16 kcal/mol.
Consider TATGACACGTGTGAGG, for which the “relative binding free energy” value was 0.05 kcal/mol.
Regarding AGGGTCACGTGGGGCT, the “relative binding free energy” value came to 0.09 kcal/mol.
As to TTAGGCACGTGTATCG, the “relative binding free energy” value came out at 0.02 kcal/mol.
As to GAGTCCACGTGGGGTG, the “relative binding free energy” value was 0.07 kcal/mol.
On to GGGTGCACGTGAGAAA, for which the “relative binding free energy” value turned out to be 0.21 kcal/mol.
To TGGTCCACGTGCGGCG belongs -0.03 kcal/mol.
As for ATTACCACGTGGGTGG, the “relative binding free energy” value is -0.29 kcal/mol.
As to TTTAGCACGTGATGGT, the “relative binding free energy” value was found to be 0.13 kcal/mol.
Take GTACGCACGTGGGGTG: the “relative binding free energy” value is -0.26 kcal/mol.
As for GAGCTCACGTGATGGG, the figure is 0.48 kcal/mol; as for CTTTCCACGTGATGGG, 0.24 kcal/mol; as for AAGTACACGTGAAGTT, 0.31 kcal/mol.
In the case of CGGTACACGTGTATTT, the “relative binding free energy” value was 0.06 kcal/mol.
To AGTCGCACGTGAGTTG belongs 0.27 kcal/mol.
To GGAAGCACGTGTGGTG belongs -0.11 kcal/mol; to TTTACCACGTGTGTGA, 0.08 kcal/mol.
For CTGGCCACGTGGGTTT, the “relative binding free energy” value was -0.15 kcal/mol.
As for TTCGTCACGTGTTGTG, the figure is 0.08 kcal/mol; as for ATAGGCACGTGGTTAA, -0.13 kcal/mol; as for TTGTTCACGTGAGGAA, 0.57 kcal/mol.
TGTTTCACGTGTGGCC: the “relative binding free energy” value is 0.27 kcal/mol.
To AGGTGCACGTGGTGGA belongs -0.1 kcal/mol.
For the sequence GGTATCACGTGGGTGA, the “relative binding free energy” value was determined as 0.08 kcal/mol.
Take CTAATCACGTGGGTGC: the “relative binding free energy” value was 0.09 kcal/mol.
As for GGGTTCACGTGGTTTT, the figure is 0.36 kcal/mol.
Regarding TTATGCACGTGGGGTC, the “relative binding free energy” value is -0.15 kcal/mol.
With TTGAGCACGTGTTTTA, the “relative binding free energy” value is -0.13 kcal/mol.
As for TTTTTCACGTGGCGCT, the figure is 0.33 kcal/mol; as for GGATACACGTGTTGAT, 0.19 kcal/mol.
Turning to TATAGCACGTGGGTGG, the “relative binding free energy” value was -0.24 kcal/mol.
Consider GGTTCCACGTGGGGAG, for which the “relative binding free energy” value was 0.03 kcal/mol.
On to AGGAGCACGTGTTAGG, for which the “relative binding free energy” value was -0.14 kcal/mol.
CTGGTCACGTGGGCGA: the “relative binding free energy” value is -0.06 kcal/mol.
Take TATTGCACGTGCATTT: the “relative binding free energy” value is -0.05 kcal/mol.
On to GTGATCACGTGTGAGT, for which the “relative binding free energy” value came out at 0.2 kcal/mol.
As to AGGGTCACGTGGTTGG, the “relative binding free energy” value was 0.03 kcal/mol.
TATAACACGTGTTTGG: the “relative binding free energy” value is 0.02 kcal/mol.
As for TGTAGCACGTGTTGAA, the figure is 0.03 kcal/mol.
